# Assay results reported in publication PMC4336329 (PLoS ONE, 2015).
# The campaign covered roughly 310,000 compounds. About 2,200 (0.71%) showed an effect of 50% or more. The effect is printed as a negative number. Some of the results follow.
# Target: human ether-à-go-go-related gene (hERG) potassium channel (human, UniProt Q12809)
# Assay: primary screen, population patch clamp on CHO cells stably expressing hERG
# human ether-à-go-go-related gene (hERG) potassium channel, sequence (Q12809 whole entry, looked up): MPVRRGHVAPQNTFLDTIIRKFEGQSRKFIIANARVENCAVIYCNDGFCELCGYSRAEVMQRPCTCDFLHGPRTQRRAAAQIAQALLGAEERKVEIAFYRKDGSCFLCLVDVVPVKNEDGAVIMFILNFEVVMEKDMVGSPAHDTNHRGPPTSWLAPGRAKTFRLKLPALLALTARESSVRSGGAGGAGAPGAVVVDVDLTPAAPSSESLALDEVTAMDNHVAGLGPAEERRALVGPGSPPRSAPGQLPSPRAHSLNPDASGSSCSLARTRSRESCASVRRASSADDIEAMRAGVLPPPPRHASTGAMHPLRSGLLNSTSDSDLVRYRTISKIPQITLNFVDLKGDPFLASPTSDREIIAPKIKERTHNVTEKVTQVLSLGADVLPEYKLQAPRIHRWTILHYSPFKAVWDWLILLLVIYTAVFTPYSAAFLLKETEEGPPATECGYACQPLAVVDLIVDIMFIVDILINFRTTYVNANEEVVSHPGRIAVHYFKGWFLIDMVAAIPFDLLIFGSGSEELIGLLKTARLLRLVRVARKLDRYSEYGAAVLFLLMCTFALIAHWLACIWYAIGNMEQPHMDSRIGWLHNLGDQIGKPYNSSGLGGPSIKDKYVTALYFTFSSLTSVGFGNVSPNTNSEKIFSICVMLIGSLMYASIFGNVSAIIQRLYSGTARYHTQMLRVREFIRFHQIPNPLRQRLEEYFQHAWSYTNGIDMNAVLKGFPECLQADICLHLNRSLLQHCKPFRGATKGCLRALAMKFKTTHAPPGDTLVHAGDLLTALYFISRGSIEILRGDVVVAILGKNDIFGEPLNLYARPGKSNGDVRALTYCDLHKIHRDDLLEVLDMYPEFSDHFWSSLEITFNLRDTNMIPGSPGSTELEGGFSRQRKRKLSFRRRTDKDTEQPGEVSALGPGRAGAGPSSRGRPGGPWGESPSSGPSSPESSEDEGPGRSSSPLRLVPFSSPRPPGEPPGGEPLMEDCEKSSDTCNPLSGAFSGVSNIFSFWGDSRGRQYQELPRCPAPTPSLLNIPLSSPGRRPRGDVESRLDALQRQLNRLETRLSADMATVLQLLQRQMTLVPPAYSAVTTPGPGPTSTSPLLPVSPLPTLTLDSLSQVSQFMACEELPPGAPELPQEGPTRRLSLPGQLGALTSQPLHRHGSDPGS
row,Compound,"hERG current change (%, negative = inhibition) at 1uM [%]"
1,N#CC(=C1CCCC1)c1nc(-c2ccc(Cl)cc2)cs1,15.2
2,Cc1cccc(Nc2ccccc2C(=O)NCc2ccco2)c1C,11.4
3,O=C(Nc1nnc(SCc2ccccn2)s1)C1CC(=O)N(c2ccccc2)C1 (stereo not shown),11.1
4,COc1ccc(C(=O)CC(=O)C(=O)Nc2c(C)cccc2C)cc1,25.8
5,Cc1ccc(-n2nc3ccc(NC(=O)/C=C/c4ccco4)cc3n2)cc1C,-1.52
6,Cc1nc2scc(C)n2c(=O)c1S(=O)(=O)Nc1ccc(N2CCN(S(C)(=O)=O)CC2)cc1,14.1
7,CCC(=O)Nc1cccc(-c2csc(-c3ccccc3)n2)c1,6.15
8,O=C(CNC(=O)Cc1ccccc1)N=Nc1c(O)[nH]c2ccc(Br)cc12,20
9,O=C(CSc1ncnc2ccccc12)Nc1cccc(S(=O)(=O)N2CCCC2)c1,5.96
10,Cc1ccc2cc(C(c3nnnn3Cc3ccccc3)N3CCc4ccccc43)c(=O)[nH]c2c1C (stereo not shown),2.32
11,CN(C)C(CNc1ccc([N+](=O)[O-])cc1C#N)c1ccccc1 (stereo not shown),-7.71
12,Cc1ccccc1S(=O)(=O)NC1OC(=O)C(Oc2ccccc2)=C1Br (stereo not shown),12.4
13,CC(C)OC(=O)CSc1nnc(-c2cnccn2)n1Cc1ccco1,1.41
14,Cc1cc(C)n(-c2nnc(N3CCN(c4ccc(F)cc4)CC3)nn2)n1,5.81
15,Nc1cc(Cl)ccc1C(=O)OCC(=O)N1CCCC1,10.1
16,C=CCn1c(SCC(=O)C23CC4CC(CC(C4)C2)C3)nc(O)cc1=O,13.6
17,CCOP(=O)(c1ccccc1)c1nc(-c2ccccc2Cl)oc1N1CCCCC1 (stereo not shown),0.969
18,CC(OC(=O)Cn1[nH]c(=O)c2ccccc2c1=O)C(=O)Nc1ccc(F)cc1Cl (stereo not shown),20.1
19,Cc1ccc(NNc2c(C)nc3ccccc3nc2=O)cc1,15.2
20,CCC(=O)c1ccc(OCc2ccc(C(=O)OC)cc2)cc1,-1.58
21,Br.CN(C)c1nc(=Nc2cccc(Cl)c2)ss1,13.3
22,CCCCc1ccc(-c2ccc(Br)cc2)nc1,9.99

row,Compound,"hERG current change (%, negative = inhibition) at 1uM [%]"
1,Clc1ccc(C2=C3CCCCn4c(-c5ccccc5)c[n+](c43)C2)cc1.[Br-],-83.1
2,NC(=O)c1ccc(SCC(=O)OCC(=O)NCc2cccs2)c([N+](=O)[O-])c1,6.83
3,C=CCNc1sc(C(=O)c2cccs2)c(N)c1C#N,22.3
4,Cc1cc(C)n2nc(SCC(=O)NCc3ccco3)nc2n1,11
5,O=C(CSc1nccc(=O)[nH]1)NC1CCCC1,16.7
6,CCOc1cc(C(=O)N(CC)CC(=O)Nc2ccc3c(c2)OCCO3)ccc1OC,13.9
7,Oc1c(Cl)cc(Cl)cc1/C=N/c1nc(-c2ccc(Cl)cc2)cs1,12.2
8,O=C(CN1C(=O)c2ccc(Br)cc2C1=O)NCC1CCCO1 (stereo not shown),-0.491
9,COc1nc(Nc2cccc(C)c2)nc(N2CCCCC2)n1,-2.96
10,CCC(Cc1ccccc1)NC(=O)C1CCC(CNc2c(N3CCCC3)c(=O)c2=O)CC1 (stereo not shown),10.3
11,CS(=O)(=O)N1CCC(C(=O)Nc2cc(Cl)ccc2Cl)CC1,5.11
12,Br.CCCCn1c(=N)n(CC(=O)c2ccco2)c2ccccc21,-4.58
13,CCOc1ccc(NC(=O)c2ccc(OCC3CCCO3)cc2)cc1S(=O)(=O)N(CC)CC (stereo not shown),9.78
14,Cc1c(NC(=S)NC(=O)c2ccccc2Br)c(=O)n(-c2ccccc2)n1C,9.86
15,Cc1ccc(C(=O)N(CC(=O)Nc2sc(C)c(C)c2C(N)=O)C2CCCC2)cc1,11.9
16,CCN(CC(=O)NCc1cccs1)C(=O)c1ccc(OC)c(S(=O)(=O)N2CCOCC2)c1,-1.94
17,CCOC(=O)[C@H]1[C@H]2COc3ccc(Cl)cc3[C@@H]2N2C(=O)CN(Cc3ccc(Cl)cc3)C(=O)[C@@]12C,14.4
18,Cc1cc(N/N=C/c2cccc(Br)c2)nc2ccccc12,12.8
19,O=C(O)C(C(O)c1ccc([N+](=O)[O-])cc1)[n+]1ccccc1.[Br-] (stereo not shown),18.1
20,COc1ccc(CSc2nnc(N)s2)cc1F,-3.27
21,CC1=CC(C)C2C(=O)N(CCCN(C)C)C(=O)C2C1 (stereo not shown),-2.52
22,COc1ccc(NC(=O)C2CCN(S(=O)(=O)c3cccnc3)CC2)cc1Cl,12

row,Compound,"hERG current change (%, negative = inhibition) at 1uM [%]"
1,CCCCC(=O)Nc1cccc(-c2nc3ncccc3o2)c1C,7.41
2,Cc1ccc(N2C(=O)CSC2c2cccnc2)c(Cl)c1 (stereo not shown),11.7
3,CCc1cccc(NC(=O)CN(c2ccc(OC)cc2)S(=O)(=O)c2c(C)n[nH]c2C)c1,9.95
4,COCCNC(=O)/C(C#N)=C/c1c(N2CCN(C)CC2)nc2c(C)cccn2c1=O,9.36
5,CCOC(=O)c1oc2ccccc2c1CN1CCN(C(=O)c2ccccc2)CC1,-6.43
6,COc1ccc(-n2nnnc2SCC(=O)c2cccc(OC)c2)cc1,11.6
7,COCCNC(=O)C(C)OC(=O)C1=Cc2ccccc2OC1 (stereo not shown),8.02
8,CC1(C)CC(=O)C(C(=S)Nc2ccccc2)=C(NC2CC(C)(C)NC(C)(C)C2)C1,10.3
9,O=C1c2ccccc2C(=O)N1CC(O)CN1CCOCC1 (stereo not shown),8.71
10,O=C(c1cccc(C(F)(F)F)c1)N1C[C@H]2C[C@@H](C1)c1cccc(=O)n1C2,-4.53
11,CCOC(=O)c1ccccc1NC(=O)CSc1nc(N)cc(N)n1,7.47
12,CC1CC(C)CN(S(=O)(=O)CCNC(=O)c2ccc3c(c2)OCO3)C1 (stereo not shown),10.8
13,Cc1ccc(-n2ncc(C(=O)NCC3CCN(C4CCCC4)C3)c2C2CCN(C(=O)OC(C)(C)C)CC2)cc1 (stereo not shown),0.717
14,CCN(CC(=O)Nc1c(F)cccc1F)C(=O)CCc1c[nH]c2ccccc12,9.18
15,CCCCCCn1c(CN2CCC(C)CC2)nc2c1c(=O)n(C)c(=O)n2C,5.88
16,COC(=O)c1ccccc1NC(=O)c1ccccc1OC,2.47
17,O=C(CCC(=O)Nc1nnc(C2CCCCC2)s1)Nc1ccc(F)cc1,9.51
18,O=C(Nc1ccc(Br)cc1)NC1CCCCCCC1,9.2
19,CCCC(C)NC(=O)COC(=O)c1ccccc1SCC(=O)NC(C)CCC (stereo not shown),-3.9
20,Cc1ccc[n+](CC(=O)Nc2cc(C(F)(F)F)ccc2Cl)c1.[Cl-],12.6
21,COc1ccccc1-c1sc2cc3c(cc2c1C#CCO)OCO3,19
22,Cc1ccccc1OCC(=O)NNC(=O)c1ccc(-c2ccccc2)cc1,0.401

row,Compound,"hERG current change (%, negative = inhibition) at 1uM [%]"
1,CCOC(=O)c1cnc(-c2ccccc2)nc1Oc1ccc(Cl)cc1,6.28
2,CCOc1ccc(S(=O)(=O)Nc2ccc(S(=O)(=O)N3CCCCC3)cc2)cc1,6.8
3,CCN(CC(=O)Nc1ccc(NC(C)=O)cc1)C(=O)C1CCCN(C(=O)c2ccc(Cl)cc2)C1 (stereo not shown),6.53
4,O=C(Nc1cccc(NC(=O)c2cccc([N+](=O)[O-])c2)n1)c1cccc([N+](=O)[O-])c1,11.5
5,CC1(C)CC(CCN)(Cc2ccccc2Cl)CCO1 (stereo not shown),15.4
6,Cc1ccc(NC(=O)CCC(=O)N/N=C/c2ccccc2O)cc1,9.34
7,COc1ccc(Cc2c(O)nc(SC)n(C(C)=O)c2=O)cc1,-0.319
8,Clc1cccc(Cc2ccc(Cl)nn2)c1,4.52
9,C=CCN(C(=O)c1csnn1)C(C(=O)NCc1ccccc1)c1ccccc1F (stereo not shown),8.54
10,O=S(=O)(c1ccc2oc(=S)[nH]c2c1)N1CCCCC1,16.8
11,CC(=O)c1ccccc1NS(=O)(=O)c1ccc2c(c1)CC(=O)N2,9.36
12,CC(C(=O)Nc1ccc(C#N)cc1)N1CCN(C(=O)C2CC2)CC1 (stereo not shown),-14.4
13,CCCCCC(=O)N1CC2(CC)CN(C(=O)CCCCC)CC(CC)(C1)C2=O,0.984
14,O=S(=O)(Nc1cc(Cl)ccc1-n1cncn1)c1cc(Br)ccc1Br,6.48
15,CC(C)(C)C(=O)Nc1nc2c(c(=O)[nH]1)CCCC2,9.41
16,CCc1ccc2c(c1)C(c1ccc([N+](=O)[O-])cc1)=NNC(c1ccc(F)cc1)=N2,-2.97
17,Cc1cc(C)nc(/N=C(\N)C2=C(O)CC(C)(C)CC2=O)n1,10.2
18,COc1cc(C#N)c(NC(=O)CN2CCN(CCO)CC2)cc1OC,0.101
19,COc1ccccc1Oc1nc2c(c(=O)n(Cc3ccccc3F)c(=O)n2C)n1C,11.8
20,CCOc1ccc(C(=O)Nc2ccc3c(c2)OCO3)cc1OCC,10.4
21,O=c1c2c(nc3c(-c4ccccc4)c[nH]n13)CCCC2,-4.25
22,COc1cc(OC)cc(C(=O)NCC(=O)OCC(=O)Nc2ncc(Cl)cc2Cl)c1,6.01
